# From the RNAGym collection of RNA variant scans (doi:10.7554/elife.90254)
# The source gives no read counts; variants with many changes may rest on few reads.
# B1: LINE1-mini (parent)
# chain: GGCAGAGCUCAACACAGCGUGGCAAAGUGGCUGUGGCUAGACUGCC
# Variants of: B1
# Test: self-cleavage, relative activity (ratio to wild type); higher = more cleavage; in vitro, sequencing; the parent is a self-cleaving ribozyme
row,Variant,self-cleavage
1,GCCAGAGCUCAACACGGCGUGGCAAAGUGGCUCUGGCUAGACUGCC,0.01
2,GCUGGAGCUCAACACAGUGUGGCAAAGUGGCUGUGGCUAGACUGCC,0.1
3,GCCAGAGCUCUAAACAGCGUGGCAAAGUGGCUGAGGCUAGACUGCC,0.02
4,GCAAGAGCUCAACAAAGCAUGGCAAAGUGGCUGUGGAUAGACUGCC,0.05
5,GCCAGAGCUCAACACAGCGUGGCAAGGUGGGUGUGGCUAGACUGCC,0.07
6,GCACGAGCUCAACACAGUGUGGCAAAGUGGCUGUCGCUAGACUGCC,0.06
7,GCCAGAGCUCAGCACAGCGUCGCAAAGUGGCUGUGGCUAGACUGCC,0.03
8,GCCAGAGCUCAUCACAGCAUGGCAAAGUGGCUGUGGCUAGACUGCA,0.05
9,GCCAGAGCUCUACAAAGCGUGGCAAAGUAGCUGUGACUAGACUGCC,0.01
10,GCGAGAGCUCAACACAGCGUGGAAAAGUGGCUGUGGCUAGACUGCC,0.08
11,GCAAGAGCUCAACAAAGCUUGGCAAAGUGGCUGUGGCAAGACUGCC,0.04
12,GCCAGAGCUCAACACAGCGUGGCAAGGUGGCUGUGCCUAGACUGCC,0.23
13,GCCAGAGCUCAACUCAGCGUGGCAAAGUGGCUGUGGCUAGCCUGCC,0.01
14,GCAAGAGCUCAACACAGAUUGGCAAAAUGGCUGUGGCUAGACUGCC,0.11
15,GCUAGAGCUUAACACAGCGUGGCAAAGUGGCUGUGGCUAGACUGCC,0.15
16,GCCAGAGCUCAACACAGCGUGGCAACGUGGCUGAGGCUAGACUGCC,0.01
17,GCCAGAGCUCAACACAGCGUGGCGAAGUGGCUGUGGCGAGACUGCC,0.01
18,GCCAGAGCUCAACACGGAGUGGCAAAGUGGCUGUGGCUAGACUGGC,0.01
19,GCCAGAGCUCAACACGACGUGACAAAGUGGCUGGGGCUAGACUGCC,0.01

row,Variant,self-cleavage
1,GCCAGAGCUCACCACAGCGUGGCAAAGUGGCUGUGGCUACACUGCC,0.01
2,GCGAGAGCUCAACACAGCGUGUCAAAGUGGCAGUGGCUAGACUGCC,0.06
3,GCCAGAGCUCAUCACAGCGUGCCAAAAUUGCUGUGGCUAGACUGCC,0.05
4,GCCAGAGCUCAACACCGCGUGACAAAGUGGCUGUGGCUAGACUGCC,0.08
5,GCCAGAGCUCAACUCAGCGUGGCAAAGUGGCUGUGGCUAUAUUGCG,0.11
6,GCUAGAGCUCAACACAGCGUGGCAAAGUGGCUGUGGCUAGACUGCA,0.04
7,GCUAGAGCUCAACAGAGCGUGGCAAAGUGGCUGUGGCUAGACUGCC,0.03
8,GCAAGAGCUCAAAACAGAGUGGCAAAGUAGCUGUGGCUAGACUGGC,0.02
9,GCCAGAGCUCACCACUGCGUCGCAAAGUGGCUGUGGCUAGACUGGC,0.01
10,GCCAGAGCUCACCACAGCGUGGCAAAGUGCCUGUGGCUCGACUGCC,0.02
11,GCCAGAGCUCAACCCAGCGUGGCAAAGUGGCUGUGGCUAGACAGCU,0.06
12,GCCAGAGCUCUACACAUCGUGGCAAAGUGGCUGUGGCUAGACGACC,0
13,GCCAGAGCUCUACACAGCGUGGCAAAGUGGCCGUGGCUAGACGGCC,0.01
14,GCCAGAGCUCAACACAGCGUGGCUAGGUGUCUGUGGCUAGACUGCC,0.05
15,GCCAGAGCUCAGGUCAGCGUGAUAAAGUGGCUGUGGCUCGACUGCC,0.01
16,GCCAGAGCUCAGCCCAGCGUGGCAAAGUGGCCGUGGCUAGCAUGCC,0.19
17,GCGAGAGCUCAACACAGCGUGGCAAUGUGGCUGUGGCUAGUCUGCC,0.11
18,GCCAGAGCUCAACGCAGUGUGGCAAAGUGGCUGUGGCUAGACUGCC,0.01
19,GCCAGAGCUCAACUCAGCGUGGAAAAGUGGCUGUGGCUAGACUGCC,0.08

row,Variant,self-cleavage
1,GCCAGAGCUCAUCACUGCGUGGCAAAGUUGCUCUGGCUAUACUGCC,0.04
2,GCCAGAGCUCAACACAGCGUGGCGAAGUGGUUGUGGCUAGACUGCC,0.01
3,GCUCGAGCUCAUCACAGCGUGGCAAAGUGGCUGUGGCUAGACUGCC,0.14
4,GCCAGAGCUCAACACAGCGUGGCCAAGUGGCUGUGGCUAAACUACC,0.01
5,GCCAGAGCUCAACACAGCGUGGCAGAGUGGUUGUAGCUAGACUGCC,0.02
6,GCGAGAGCACAACACAGCGUGGCAAAGCGGCUGUGACCUGACUGCC,0.49
7,GCCAGAGCUCUACACAGCGUGGCAAAGUGGCUAUGGCUAGACUGCU,0.01
8,GCCAGAGCUCAACUCUACGUCGCAAAGUGGCUGUGGCUAGACUGCC,0.07
9,GCUAGAGCUAAACACAGCAUGGCAAAGUGGCUUUGGCUAGACUGCU,0.03
10,GCCAGAGCUCAACACUGCGUGCCAAAGUGGCUACGGCUAGACUGCC,0.02
11,GCCAGAGCUCAUCACUGCGUGGCAACGUGGGUGUGGCGAGACUGCC,0.01
12,GCCAGAGCUCAACCCGGCGUGGCAAAGUGGCUGUGGCUUGACUGCC,0.01
13,GCCAGAGCUCAGCACAGCGUAGCAAAGUGGCUGUGGCUAGCCUGCC,0.03
14,GCCAGAGCUCAUCACAGCGUGGUAAAGUGGCUGCGGCUAGUCUGCC,0.03
15,GCUAUAGCUCAAAACAUCGUGGCAAAUUGGCUGGGGCUAGACUGCC,0.03
16,GCCAGAGCUCACCACAGCGUGGCAAAGUGGCUGAGGCAAGACUGCC,0.01
17,GCCAGAGCUCUACACAGCGUGGCAAAGGGGCUGUGGCUAUACUGCC,0.01
18,GCCAGAGCUCAACGCAGCGUGGCAAAUUGGCUGUGGCUAGACAGCC,0.01
